The whole screen tested about 330,000 compounds, of which about 4,200 (1.3%) were called active. This list was built around the results that the source calls inconclusive (neither active nor inactive); the mix of calls is not that of the screen. Calls come from the whole dose curve; as a rule, active = well fitted activation curve with a large enough effect; inconclusive = small, poorly fitted or top-dose-only effect; inactive = no such curve, though single readings can be large or run the other way. Potencies beside an inconclusive call are fits to weak or partial responses and may not hold up.
Test: qHTS screen for small molecules that induce genotoxicity in human embryonic kidney (HEK293T) cells expressing luciferase-tagged ELG1; note: nearly all actives have a fitted effect of over 60% in size
Conditions: HEK293T ELG1-luciferase reporter, luminescence, 16 h; series mostly up to 46 µM
Outline: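 HEK293T cells expressing luciferase-tagged ELG1 were treated with compound or DMSO for 16 hr at 37°C. Luciferase activity was then read after 30 min with ONE-Glo at room temperature; rising signal flags genetic stress.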
Potency is the fitted concentration of half-maximal effect; tags give direction and shape of the fitted curve.

Question: With `CC(C)(C)c1ccc(OCCOCCn2cnc3ccccc3c2=O)cc1` as the compound, how does the Potency read?
Answer: inactive

Question: Which Potency does the source give for `Cc1ccc(CSC2=NCCN2C(=O)C2CC2)cc1` here?
Answer: inconclusive: 23.1 µM [activator, partial curve, poor fit]

Question: With `COc1ccccc1-c1nnc(SCC(=O)N2CCCC2)o1` as the compound, how does the Potency read?
Answer: inconclusive: 18.3 µM [activator, single point]

Question: Which Potency does the source give for `CCOC(=O)c1ccc(NC(=O)N2CCc3ccccc32)cc1` here?
Answer: active: 8.2 µM

Question: Which Potency does the source give for `COCCCn1c(SCC(=O)Nc2ccc(C(C)=O)cc2)nc2ccccc2c1=O` here?
Answer: inconclusive: 20.6 µM [activator, partial curve, poor fit]

Question: For `COc1ccc(NC(=O)CCCc2ccccc2)cc1OC`, which Potency is on record?
Answer: active: 18.3 µM

Question: Which Potency does the source give for `Brc1ccc2nc(-c3c[nH]c4ccccc34)cn2c1` here?
Answer: inconclusive: 0.411 µM [activator, full curve, poor fit]

Question: Which Potency does the source give for `COc1ccc(CCC(=O)Nc2ccc(-c3noc(-c4ccc(OC)c(OC)c4)n3)cc2)cc1` here?
Answer: inconclusive: 8.2 µM [activator, partial curve]

Question: For `CCc1nnc(NC(=O)NC(C)(C)C)s1`, which Potency is on record?
Answer: inconclusive: 20.6 µM [activator, single point]

Question: With `COc1ccc(O)c(C(=O)CC(=O)c2ccccc2C)c1` as the compound, how does the Potency read?
Answer: inconclusive: 20.6 µM [activator, single point]

Question: With `Cc1ccc2c(CN3CCN(S(=O)(=O)c4ccccc4C(F)(F)F)CC3)cc(=O)oc2c1C` as the compound, how does the Potency read?
Answer: inactive

Question: For `N#Cc1cc2ccccc2nc1SCc1ccccn1`, which Potency is on record?
Answer: active: 7.31 µM

Question: For `COC(=O)c1sc2nc(CN3CCOCC3)nc(N3CCOCC3)c2c1C`, which Potency is on record?
Answer: inactive

Question: Which Potency does the source give for `Cc1ccc(C(=O)/C=C/c2ccccc2[N+](=O)[O-])cc1` here?
Answer: inconclusive: 20.6 µM [activator, single point]

Question: Which Potency does the source give for `CCOc1ccc(N2CC(C(=O)NCc3ccco3)CC2=O)cc1` (configuration not stated) here?
Answer: inactive

Question: With `N#CCCCC#Cc1ccc2c(c1)COc1c3ccccc3nn1-2` as the compound, how does the Potency read?
Answer: inconclusive: 0.291 µM [activator, full curve]

Question: For `CN(CC1COCCO1)C(=O)c1cc(COc2c(F)cccc2F)on1` (configuration not stated), which Potency is on record?
Answer: inconclusive: 23.1 µM [activator, single point]

Question: With `Cc1ccc(OCC(=O)Nc2ccc(F)cc2)cc1` as the compound, how does the Potency read?
Answer: inconclusive: 11.2 µM [activator, partial curve, poor fit]

Question: Which Potency does the source give for `Cc1ccc(N2CCN(/N=C/c3sccc3C)CC2)cc1` here?
Answer: inconclusive: 25.9 µM [activator, partial curve, poor fit]

Question: Which Potency does the source give for `CC(C)(C)c1ccc(OCc2ccc(C(=O)NN)o2)cc1` here?
Answer: inconclusive: 1.03 µM [activator, partial curve]

Question: For `CCCNC(=O)C1CC(=O)N(c2ccc(OCc3ccc(Cl)cc3)cc2)C1` (configuration not stated), which Potency is on record?
Answer: active: 1.83 µM

Question: With `CC1C(=O)N2CCCc3cc(NC(=O)c4ccccc4Br)cc1c32` (configuration not stated) as the compound, how does the Potency read?
Answer: inconclusive: 18.3 µM [activator, partial curve, poor fit]

Question: Which Potency does the source give for `COc1ccc2nc(NC(=O)CCNC(=O)c3ccco3)sc2c1` here?
Answer: inconclusive: 18.3 µM [activator, partial curve, poor fit]

Question: Which Potency does the source give for `COc1cc(C(=O)NCC2CCCCC2)ccc1OCc1c(C)noc1C` here?
Answer: inactive

Question: For `O=C1CC(c2ccccc2)Sc2nc3ccccc3n21` (configuration not stated), which Potency is on record?
Answer: inconclusive: 5.17 µM [activator, full curve]

Question: With `COc1ccc(NC(=O)COC(=O)c2c(F)cccc2Cl)cc1OC` as the compound, how does the Potency read?
Answer: inconclusive: 11.6 µM [activator, partial curve]

Question: With `CCN(C(=O)c1ccco1)c1nc(-c2ccc(OC)cc2)cs1` as the compound, how does the Potency read?
Answer: inconclusive: 18.3 µM [activator, partial curve]

Question: For `O=C(Nc1ccc(N2CCOCC2)c([N+](=O)[O-])c1)c1ccco1`, which Potency is on record?
Answer: inactive

Question: For `CS(=O)(=O)c1ccc(Cl)c(NC(=O)C2CCN(S(=O)(=O)c3cccs3)CC2)c1`, which Potency is on record?
Answer: inactive

Question: For `Cc1ccc(NCc2nc3ccccc3n2C)cc1`, which Potency is on record?
Answer: active: 1.46 µM

Question: For `O=C1c2ccccc2NC(c2cnc3ccccc3n2)N1O` (configuration not stated), which Potency is on record?
Answer: inconclusive: 1.46 µM [activator, full curve]

Question: Which Potency does the source give for `COc1ccccc1NC(=O)c1ccc(Cl)c(S(=O)(=O)NCc2ccco2)c1` here?
Answer: inactive

Question: Which Potency does the source give for `COc1ccc(/C(N)=N/OC(=O)c2ccc3c(c2)OCO3)cc1OC` here?
Answer: inconclusive: 18.4 µM [activator, single point]

Question: With `Clc1ccc(SCc2cn3cccnc3n2)cc1` as the compound, how does the Potency read?
Answer: inconclusive: 20.6 µM [activator, partial curve, poor fit]

Question: For `Cc1cc(-c2nnc(CCC(=O)N3CCN(Cc4cccc(F)c4)CC3)o2)c(C)o1`, which Potency is on record?
Answer: inactive

Question: For `CC(C)Sc1nnc(SCC(=O)NCCCN2CCCC2=O)s1`, which Potency is on record?
Answer: inactive

Question: Which Potency does the source give for `COc1ccccc1N1CCN(/N=C/c2cccc(OC)c2O)CC1` here?
Answer: inconclusive: 29.1 µM [activator, single point]

Question: Which Potency does the source give for `O=C(/C=C/c1ccccc1)c1c[nH]c2ccccc12` here?
Answer: inconclusive: 1.03 µM [activator, partial curve]

Question: Which Potency does the source give for `O=C(Nc1cc(Cl)ccc1N1CCOCC1)C1=COCCO1` here?
Answer: inactive

Question: Which Potency does the source give for `COc1ccc(NC(=O)c2cc3c(COC(C)=O)cnc(C)c3oc2=Nc2cccc(C(=O)O)c2)c(OC)c1` here?
Answer: inactive

Question: With `CCOc1ccc(C(=O)Nc2ncccc2Cl)cc1` as the compound, how does the Potency read?
Answer: inconclusive: 16.4 µM [activator, partial curve]

Question: For `O=C(Cc1cccs1)N/N=C/C(Cl)=C/c1ccccc1`, which Potency is on record?
Answer: inconclusive: 29.1 µM [activator, single point]

Question: Which Potency does the source give for `Cc1ccc(NC(=O)Cn2cc(C(=O)C3CC3)c3ccccc32)c(C)c1` here?
Answer: inconclusive: 20.6 µM [activator, partial curve, poor fit]

Question: For `O=C(Nc1nnc(-c2cccc(F)c2)s1)Nc1ccccc1F`, which Potency is on record?
Answer: inconclusive: 16.4 µM [activator, partial curve, poor fit]

Question: With `COc1ccc(OC)c(-c2nc(C(N)=O)c3[nH]c(=O)n(-c4ccc(F)cc4)c3n2)c1` as the compound, how does the Potency read?
Answer: inactive

Question: With `CC(C)CNc1nc(Oc2ccc(=O)n(C)n2)nc(N2CCOCC2)n1` as the compound, how does the Potency read?
Answer: inconclusive: 16.4 µM [activator, partial curve, poor fit]

Question: With `O=C(N/N=C/c1ccccn1)c1cc(Br)ccc1O` as the compound, how does the Potency read?
Answer: inconclusive: 20.6 µM [activator, single point]
